Structures are written as SMILES. Where only a bound is given, the exact number is not on record here.

The text below walks through data of US7592316B2, “Peptides as NS3-serine protease inhibitors of hepatitis C virus” (Schering Corporation, priority 2000, dated 2009).

For the experiment, the target named is HCV NS3/NS4A protease (strain 1a) (Hepatitis C virus genotype 1a, UniProt P27958). Briefly: biochemical. The note with it: Table 6; HCV NS3/NS4A protease, 30° C., pH 6.5; read-out: Ki*.
Broadly, the Ki is a measure of affinity in units of concentration, obtained from inhibition or displacement. For `CCCC(NC(=O)[C@@H]1[C@@H]2[C@H](CN1C(=O)[C@@H](NC(=O)OC(C)(C)C)C1Cc3ccccc3C1)C2(C)C)C(=O)C(=O)NCc1ccccc1` (some centres unmarked), the Ki was in the range of 101 to 1000 nM.
In the case of `C=CCNC(=O)C(=O)C(CCC)NC(=O)[C@@H]1[C@@H]2[C@H](CN1C(=O)[C@@H](NC(=O)OC1CCC[C@@H]1C)C1CCCC1)C2(C)C` (some centres unmarked), the Ki was in the range of 1 to 100 nM.
Turning to `CCC[C@@H](NC(=O)[C@@H]1[C@@H]2[C@H](CN1C(=O)[C@@H](NC(=O)OC(C)(C)C)C1CCCCC1)C2(C)C)C(=O)C(=O)NCC(=O)N[C@H](CC(=O)N(C)C)c1ccccc1`, the Ki lay in the range of 1 to 100 nM.
For the molecule `CCC[C@H](NC(=O)[C@@H]1[C@@H]2[C@H](CN1C(=O)[C@@H](NC(=O)OC(C)(C)C)C1CCCCC1)C2(C)C)C(=O)C(=O)NCC(=O)N[C@H](CC(=O)N(C)C)c1ccccc1`, the Ki lay in the range of 1 to 100 nM.
Take `CCCC(NC(=O)[C@@H]1[C@@H]2[C@H](CN1C(=O)[C@@H](NC(=O)OC(C)(C)C)C1CCCCC1)C2(C)C)C(=O)C(=O)NCC(=O)N[C@@H](CC(=O)N(C)C)c1ccccc1` (some centres unmarked): the Ki is 1 to 100 nM.
On to `CCCC(NC(=O)[C@@H]1[C@@H]2[C@H](CN1C(=O)[C@@H](NC(=O)OC(C)(C)C)C1CCCCC1)C2(C)C)C(=O)C(=O)N[C@H](CC(=O)N(C)C)c1ccccc1` (some centres unmarked), for which the Ki was > 1000 nM.
Regarding `CC(C)(CF)NC(=O)N[C@H](C(=O)N1C[C@H]2[C@@H]([C@H]1C(=O)NC(CC1CC1)C(=O)C(=O)NCC(=O)NCc1ccccc1)C2(C)C)C(C)(C)C` (some centres unmarked), the Ki was 1 to 100 nM.
For `C[C@@H](NC(=O)N[C@H](C(=O)N1C[C@H]2[C@@H]([C@H]1C(=O)NC(CC1CCC1)C(=O)C(N)=O)C2(C)C)C(C)(C)C)C(C)(C)C` (some centres unmarked), the Ki was 1 to 100 nM.
In the case of `CN(C)C(=O)[C@@H](NC(=O)CNC(=O)C(=O)C(CCC(F)(F)F)NC(=O)[C@@H]1[C@H]2CC(C)(C)O[C@H]2CN1C(=O)[C@@H](NC(=O)OC(C)(C)C)C(C)(C)C)c1ccccc1` (some centres unmarked), the Ki lay in the range of 1 to 100 nM.
Consider `COC[C@@H](NC(=O)N[C@H](C(=O)N1C[C@H]2[C@@H]([C@H]1C(=O)NC(CC1CC1)C(=O)C(N)=O)C2(Cl)Cl)C(C)(C)C)C(C)(C)C` (some centres unmarked), for which the inhibition constant Ki was 1 to 100 nM.
`COC[C@@H](NC(=O)N[C@H](C(=O)N1C[C@H]2[C@@H]([C@H]1C(=O)NC(CC1CCC1)C(=O)C(N)=O)C2(Cl)Cl)C(C)(C)C)C(C)(C)C` (some centres unmarked): the Ki is 1 to 100 nM.
As to `CC(C)(C)NC(=O)N[C@H](C(=O)N1C[C@H]2[C@@H]([C@H]1C(=O)NC(CC1CCC1)C(=O)C(N)=O)C2(C)C)C1(C)CC1` (some centres unmarked), the Ki is 101 to 1000 nM.
`CC(C)(C)NC(=O)N[C@H](C(=O)N1C[C@H]2[C@@H]([C@H]1C(=O)NC(CC1CC1)C(=O)C(N)=O)C2(C)C)C1(C)CC1` (some centres unmarked): the Ki is 101 to 1000 nM.
Turning to `CC(C)(C)[C@H](NC(=O)NC(C)(C)C(F)(F)F)C(=O)N1C[C@H]2[C@@H]([C@H]1C(=O)NC(CC1CC1)C(=O)C(N)=O)C2(C)C` (some centres unmarked), the Ki lay within 1 to 100 nM.
For the molecule `CC(C)(C)[C@H](NC(=O)NC(C)(C)C(F)(F)F)C(=O)N1C[C@H]2[C@@H]([C@H]1C(=O)NC(CC1CCC1)C(=O)C(N)=O)C2(C)C` (some centres unmarked), the Ki lay within 1 to 100 nM.
Regarding `CC(C)(C)OC(=O)N[C@H](C(=O)N1C[C@H]2[C@@H]([C@H]1C(=O)NC(CC1CCC1)C(=O)C(N)=O)C2(F)F)C(C)(C)C` (some centres unmarked), the Ki was in the range of 101 to 1000 nM.
Turning to `COC[C@@H](NC(=O)N[C@H](C(=O)N1C[C@H]2[C@@H]([C@H]1C(=O)NC(CC1CCC1)C(=O)C(N)=O)C2(C)C)C(C)(C)C)C(C)(C)C` (some centres unmarked), the Ki fell in the range of 101 to 1000 nM.
The same measure for `CN(C)C(=O)[C@@H](NC(=O)CNC(=O)C(=O)C(CCC(F)(F)F)NC(=O)[C@@H]1[C@H]2CC(C)(C)O[C@H]2CN1C(=O)[C@@H](NC(=O)NC(C)(C)C)C(C)(C)C)c1ccccc1` (some centres unmarked): 1 to 100 nM; for `CN(C)C(=O)[C@@H](NC(=O)CNC(=O)C(=O)C(CC1CC1)NC(=O)[C@@H]1[C@H]2CC(C)(C)O[C@H]2CN1C(=O)[C@@H](NC(=O)OC(C)(C)C)C(C)(C)C)c1ccsc1` (some centres unmarked): 1 to 100 nM.
The same measure for `CC(C)(C)NC(=O)N[C@H](C(=O)N1C[C@H](Cl)C[C@H]1C(=O)NC(CC1CCC1)C(=O)C(N)=O)C(C)(C)C` (some centres unmarked): 101 to 1000 nM; for `CN(C)C(=O)[C@@H](NC(=O)CNC(=O)C(=O)C(CC1CCC1)NC(=O)[C@@H]1[C@H]2CC(C)(C)O[C@H]2CN1C(=O)[C@@H](NC(=O)OC(C)(C)C)C1(C)CCCCC1)c1ccccc1` (some centres unmarked): 1 to 100 nM; for `CN(C)C(=O)C(NC(=O)CNC(=O)C(=O)C(CC1CC1)NC(=O)[C@@H]1[C@@H]2[C@H](CN1C(=O)[C@@H](NC(=O)OC(C)(C)C)C(C)(C)C)C2(F)F)c1ccccc1` (some centres unmarked): 1 to 100 nM.
Turning to `CC(C)(C)NC(=O)N[C@H](C(=O)N1C[C@H]2[C@@H]([C@H]1C(=O)NC(CC1CC1)C(=O)C(N)=O)C2(F)F)C(C)(C)C` (some centres unmarked), the Ki is 101 to 1000 nM.
Turning to `CC(C)(C)NC(=O)N[C@H](C(=O)N1C[C@H]2[C@@H]([C@H]1C(=O)NC(CC1CCC1)C(=O)C(N)=O)C2(F)F)C(C)(C)C` (some centres unmarked), the Ki was in the range of 101 to 1000 nM.
As to `CN(C)C(=O)C(NC(=O)CNC(=O)C(=O)C(CC1CC1)NC(=O)[C@@H]1[C@@H]2[C@H](CN1C(=O)[C@@H](NC(=O)NC(C)(C)C)C(C)(C)C)C2(F)F)c1ccccc1` (some centres unmarked), the Ki lay in the range of 1 to 100 nM.
In the case of `CC(C)(C)NC(=O)N[C@H](C(=O)N1C[C@H]2[C@@H]([C@H]1C(=O)NC(CC1CC1(F)F)C(=O)C(N)=O)C2(C)C)C(C)(C)C` (some centres unmarked), the Ki was in the range of 1 to 100 nM.
On to `CC(C)(C)OC(=O)N[C@H](C(=O)N1C[C@H]2[C@@H]([C@H]1C(=O)NC(CCC(F)F)C(=O)C(N)=O)C2(C)C)C(C)(C)C` (some centres unmarked), for which the Ki lay within 101 to 1000 nM.
Regarding `CC(C)(C)NC(=O)N[C@H](C(=O)N1C[C@H]2[C@@H]([C@H]1C(=O)NC(CCC(F)F)C(=O)C(N)=O)C2(C)C)C(C)(C)C` (some centres unmarked), the Ki lay in the range of 101 to 1000 nM.
In the case of `CN(C)C(=O)c1nc(CNC(=O)C(=O)C(CC2CCC2)NC(=O)[C@@H]2[C@@H]3[C@H](CN2C(=O)[C@@H](NC(=O)NC(C)(C)C)C(C)(C)C)C3(C)C)sc1-c1ccccc1` (some centres unmarked), the Ki was 101 to 1000 nM.
On to `CC1C[C@H]2CN(C(=O)[C@@H](NC(=O)OC(C)(C)C)C3CCCCC3)[C@H](C(=O)NC(CC3CC3)C(=O)C(=O)NCC(=O)N[C@H](C(=O)N(C)C)c3ccccc3)[C@H]2C1` (some centres unmarked), for which the Ki was 1 to 100 nM.
Turning to `CC(C)(C)OC(=O)N[C@H](C(=O)N1C[C@@H]2CCC[C@@H]2[C@H]1C(=O)NC(CC1CCC1)C(=O)C(N)=O)C1CCCCC1` (some centres unmarked), the Ki lay within 101 to 1000 nM.
`CC(C)(C)OC(=O)N[C@H](C(=O)N1C[C@@H]2CCC[C@@H]2[C@H]1C(=O)NC(CC1CC1)C(=O)C(N)=O)C1CCCCC1` (some centres unmarked): the Ki lay within 101 to 1000 nM.
`CN(C)C(=O)[C@@H](NC(=O)CNC(=O)C(=O)[C@@H](CC1CCC1)NC(=O)[C@@H]1[C@H]2CC(F)(F)C[C@H]2CN1C(=O)[C@@H](NC(=O)OC(C)(C)C)C1CCCCC1)c1ccccc1`: the inhibitory constant (Ki) lay in the range of 1 to 100 nM.
Consider `CN(C)C(=O)[C@@H](NC(=O)CNC(=O)C(=O)[C@H](CC1CCC1)NC(=O)[C@@H]1[C@H]2CC(F)(F)C[C@H]2CN1C(=O)[C@@H](NC(=O)OC(C)(C)C)C1CCCCC1)c1ccccc1`, for which the Ki fell in the range of 1 to 100 nM.
As for `CN(C)C(=O)[C@@H](NC(=O)CNC(=O)C(=O)C(CC1CC1)NC(=O)[C@@H]1[C@H]2CC(F)(F)C[C@H]2CN1C(=O)[C@@H](NC(=O)OC(C)(C)C)C1CCCCC1)c1ccccc1` (some centres unmarked), the Ki lay within 1 to 100 nM.
With `CC(C)(C)OC(=O)N[C@H](C(=O)N1C[C@@H]2CC(F)(F)C[C@@H]2[C@H]1C(=O)NC(CC1CCC1)C(=O)C(N)=O)C1CCCCC1` (some centres unmarked), the Ki was 101 to 1000 nM.
Turning to `CC(C)(C)OC(=O)N[C@H](C(=O)N1C[C@@H]2CC(F)(F)C[C@@H]2[C@H]1C(=O)NC(CC1CCC1)C(=O)C(N)=O)C(C)(C)C` (some centres unmarked), the Ki lay in the range of 101 to 1000 nM.
As to `CC(C)(C)OC(=O)N[C@H](C(=O)N1C[C@@H]2CC(F)(F)C[C@@H]2[C@H]1C(=O)NC(CCC(F)F)C(=O)C(N)=O)C(C)(C)C` (some centres unmarked), the Ki fell in the range of 101 to 1000 nM.
With `CN(C)C(=O)[C@@H](NC(=O)CNC(=O)C(=O)C(CCC(F)F)NC(=O)[C@@H]1[C@H]2CC(C)(C)O[C@H]2CN1C(=O)[C@@H](NC(=O)OC(C)(C)C)C1CCCCC1)c1ccccc1` (some centres unmarked), the Ki was 1 to 100 nM.
`CN(C)C(=O)[C@@H](NC(=O)CNC(=O)C(=O)C(CCC(F)F)NC(=O)[C@@H]1[C@H]2CC(F)(F)C[C@H]2CN1C(=O)[C@@H](NC(=O)OC(C)(C)C)C1CCCCC1)c1ccccc1` (some centres unmarked): the Ki was 1 to 100 nM.
Turning to `CC1C[C@H]2CN(C(=O)[C@@H](NC(=O)OC(C)(C)C)C3CCCCC3)[C@H](C(=O)NC(CCC(F)F)C(=O)C(=O)NCC(=O)N[C@H](C(=O)N(C)C)c3ccccc3)[C@H]2C1` (some centres unmarked), the Ki is 1 to 100 nM.
`C[C@@H](NC(=O)N[C@H](C(=O)N1C[C@@H]2OC(C)(C)C[C@@H]2[C@H]1C(=O)NC(CC1CC1)C(=O)C(=O)NCC(=O)NC(C(=O)N(C)C)c1ccccc1)C1CCCCC1)C(C)(C)C` (some centres unmarked): the Ki fell in the range of 1 to 100 nM.
As to `CC(C)(C)NC(=O)N[C@H](C(=O)N1C[C@H]2[C@@H]([C@H]1C(=O)NC(CC1(F)CCC1)C(=O)C(N)=O)C2(C)C)C(C)(C)C` (some centres unmarked), the Ki lay in the range of 101 to 1000 nM.
The same measure for `CC(C)(C)OC(=O)N[C@H](C(=O)N1C[C@@H]2CC3(CC3)C[C@@H]2[C@H]1C(=O)NC(CC1CCC1)C(=O)C(N)=O)C(C)(C)C` (some centres unmarked): 101 to 1000 nM; for `CC(F)(F)CC(NC(=O)[C@@H]1[C@@H]2[C@H](CN1C(=O)[C@@H](NC(=O)OC(C)(C)C)C1CCCCC1)C2(C)C)C(=O)C(N)=O` (some centres unmarked): 101 to 1000 nM; for `CN(C)C(=O)[C@@H](NC(=O)CNC(=O)C(=O)[C@@H](CC1CCC1)NC(=O)[C@@H]1[C@H]2CC3(CC3)C[C@H]2CN1C(=O)[C@@H](NC(=O)OC(C)(C)C)C(C)(C)C)c1ccccc1`: 101 to 1000 nM.
The same measure for `CN(C)C(=O)[C@@H](NC(=O)CNC(=O)C(=O)[C@H](CC1CCC1)NC(=O)[C@@H]1[C@H]2CC3(CC3)C[C@H]2CN1C(=O)[C@@H](NC(=O)OC(C)(C)C)C(C)(C)C)c1ccccc1`: 1 to 100 nM.
`CC(F)(F)CC(NC(=O)[C@@H]1[C@@H]2[C@H](CN1C(=O)[C@@H](NC(=O)NC1(C)CCCCC1)C1CCCCC1)C2(C)C)C(=O)C(N)=O` (some centres unmarked): the Ki is 101 to 1000 nM.
The same measure for `CC(F)(F)CC(NC(=O)[C@@H]1[C@@H]2[C@H](CN1C(=O)[C@@H](NC(=O)NC1(C)CCCCC1)C(C)(C)C)C2(C)C)C(=O)C(N)=O` (some centres unmarked): 1 to 100 nM; for `CN(C)C(=O)[C@@H](NC(=O)CNC(=O)C(=O)C(CC1CC1)NC(=O)[C@@H]1[C@H]2CC3(CC3)C[C@H]2CN1C(=O)[C@@H](NC(=O)OC(C)(C)C)C(C)(C)C)c1ccccc1` (some centres unmarked): 1 to 100 nM.
